PubChem BioAssay AID1745845 (National Center for Advancing Translational Sciences (NCATS), 2022)
Values joined by “and” are separate entries in the source; they are usually repeats but may differ in a detail not shown here. Equal entries are not always repeated. Out of some 360,000 compounds screened, about 2,600 (0.72%) were called active. Inconclusive results, whose numbers are uncertain, are shown with a selection of clear calls. Calls come from the whole dose curve; as a rule, active = well fitted inhibition curve with a large enough effect; inconclusive = small, poorly fitted or top-dose-only effect; inactive = no such curve, though single readings can be large or run the other way. A potency beside an inconclusive call is a rough fit, not a confirmed value.

Assay: Primary qHTS for Inhibitors of ATXN expression; note: nearly all actives have a fitted effect of over 55% in size
Conditions: HEK-293 ATXN2-luciferase reporter, luminescence, 24 h; activity change, negative = inhibition: at 57 µM (top of the series)
How it was run: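 qHTS (up to 57 uM final) was run with 24 h compound exposure of reporter cells at 37 °C. Each well was multiplexed: SteadyGlo luminescence measured ATXN2-luciferase expression after a fluorogenic Gly-Phe-AFC viability readout (25 uM final).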
% is set by controls: 0 for no effect and ±100 for the full control effect; potency is the fitted concentration of half-maximal effect; tags give direction and shape of the fitted curve.

Row | Structure (SMILES) | Potency | activity change, negative = inhibition
1 | COc1ccc(Br)cc1CN(C)CC(O)COc1ccc(Br)cc1 (stereo not given) | inconclusive: 28.2 µM [inhibitor, single point] | 
2 | O=C(CSc1ccc2c(c1)OCCO2)Nc1ccc(Cl)cn1 | inconclusive: 25.1 µM [inhibitor, single point] | 
3 | COc1ccc(C(C)(O)c2nc(-c3ccc(F)c(Cl)c3)cs2)cc1 (stereo not given) | inconclusive: 39.8 µM [inhibitor, single point] | 
4 | COc1ccc(Br)cc1C(=O)NC(=S)Nc1ccc(CN2CCOCC2)cc1 | active: 25.1 µM | 
5 | COc1ccc(C(=O)/C=C/Nc2ccccn2)cc1 | active: 8.91 µM | 
6 | CCO[C@H]1OC(C(=O)Nc2ccccc2)=C[C@@H](c2ccc(C(F)(F)F)cc2)[C@@H]1CCCO | inconclusive: 35.5 µM [inhibitor, single point] | 
7 | COc1ccc(C(=O)C(C)[n+]2ccc(C)c3ccccc32)cc1[N+](=O)[O-] (stereo not given) | inactive | 
8 | O=[N+]([O-])c1ccc(O)c(/C=N/Nc2nc3ccccc3[nH]2)c1 | inconclusive: 2.24 µM [inhibitor, full curve] | 
9 | Cc1ccc2c(=O)c(C(=O)c3ccc(F)cc3)cn(CC(=O)NCCc3ccccc3)c2n1 | inactive | 
10 | COc1ccc(S(=O)(=O)Nc2cc3c(cc2NCc2ccccc2)n(C)c(=O)n3C)cc1 | inactive | 
11 | CSc1nc(Oc2ccc3ccccc3c2)c2sccc2n1 | inconclusive: 5.62 µM [inhibitor, partial curve] | 
12 | CCOC(=O)CCc1ccc(NC(=O)/C=C/c2ccc([N+](=O)[O-])o2)cc1 | inconclusive: 9.47 µM [inhibitor, partial curve, poor fit] | 
13 | COc1cccc(C(C)NC(=O)Nc2ccccc2Cl)c1 (stereo not given) | inactive | 
14 | COc1ccccc1C(c1nnnn1Cc1ccco1)N1CCN(c2cccc(C)c2C)CC1 (stereo not given) | inconclusive: 14.1 µM [inhibitor, partial curve, poor fit] | 
15 | COc1ccc(CCNS(=O)(=O)c2ccc3c(c2)oc(=O)n3C)cc1OC | inactive | 
16 | Cc1ccc(-c2nc3cccnc3o2)cc1NC(=O)COc1ccc(C(C)(C)C)cc1 | inconclusive: 35.5 µM [inhibitor, single point] | 
17 | Cc1ccc(CNCc2c(C(=O)O)n(Cc3ccc(C)cc3)c3cc(C)ccc23)cc1 | inconclusive: 39.8 µM [inhibitor, single point] | 
18 | COc1ccc(CCNC2=C(Cl)C(=O)N(CCc3ccc(OC)c(OC)c3)C2=O)cc1OC | inconclusive: 31.6 µM [inhibitor, single point] | 
19 | CC(C)NC(=O)C1CCN(C(=O)c2cc3sccc3n2Cc2ccc(Cl)cc2)CC1 | inconclusive: 3.55 µM [inhibitor, full curve] | 
20 | CCOc1ccc(-c2nc(CSCC(=O)NCc3ccco3)c(C)o2)cc1 | inconclusive: 2.82 µM [inhibitor, full curve] | 
21 | COc1cccc(Cn2cccc(NC(=O)Nc3ccccc3C)c2=O)c1 | inconclusive: 37.7 µM [inhibitor, single point] | 
22 | CC(C)N(C(=O)[C@H]1C[C@H](CC(=O)NCC23CC4CC(CC(C4)C2)C3)C(=O)N2CCc3c([nH]c4cc(CCC(=O)N(C)C)ccc34)[C@]12C)C(C)C | inconclusive: 35.5 µM [inhibitor, single point] | 

Row | Structure (SMILES) | Potency | activity change, negative = inhibition
23 | Nc1[nH]c(C(=O)c2ccccc2)c(-c2ccncc2)c1C(=O)NC1CC1 | inactive | 
24 | C=CCNCCCOc1ccc(Cl)cc1Br | inactive | 
25 | COc1ccc([N+](=O)[O-])cc1NC(=O)CN(C)S(=O)(=O)c1ccccc1 | inconclusive: 0.0947 µM [inhibitor, full curve, poor fit] | 
26 | COc1ccccc1N(CC(=O)NCCSCc1cccc(Cl)c1)S(C)(=O)=O | inconclusive: 25.1 µM [inhibitor, partial curve, poor fit] | 
27 | O=C(C1CCC(Cn2c(=O)c3sccc3n(Cc3ccccc3F)c2=O)CC1)N1CCCCC1 (stereo not given) | inconclusive: 28.2 µM [inhibitor, single point] | 
28 | Cc1cccc2c1Sc1ccc(Cl)cc1CC2N1CCNCC1 (stereo not given) | inconclusive: 37.7 µM [inhibitor, partial curve, poor fit] | 
29 | C[C@H](CO)N1C[C@H](C)[C@H](CN(C)C(=O)c2ccccc2)OCc2ccccc2-c2c(n(C)c3ccccc23)C1=O | inconclusive: 39.8 µM [inhibitor, single point] | 
30 | O=C(Nc1cccc(Br)c1)c1ccc(Cl)c(S(=O)(=O)N2CCOCC2)c1 | inconclusive: 39.8 µM [inhibitor, single point] | 
31 | CCc1c(C)sc2c1CCN(C(=O)Nc1ccc(F)c(Cl)c1)C2c1ccc(F)cc1 (stereo not given) | inconclusive: 39.8 µM [inhibitor, single point] | 
32 | COc1ccc2nc(/C(C#N)=C\c3ccc(Oc4ccc([N+](=O)[O-])cn4)cc3)[nH]c2c1 | inconclusive: 12.6 µM [inhibitor, partial curve] | 
33 | Cc1ccc(-c2csc(NC(=O)CSc3nc4ccccc4c(=O)n3CCCN(C)C)n2)cc1 | inconclusive: 37.7 µM [inhibitor, single point] | 
34 | O=C(NC(=O)c1ccccc1O)c1ccc(C(F)(F)F)cc1 | inconclusive: 39.8 µM [inhibitor, single point] | 
35 | CCCCCCCCCn1c2c(c(=N)c3c1CCC3)CCC2 | active: 2 µM | 
36 | O=S(=O)(NCC(Nc1ccc(Cl)cc1)c1ccccc1)c1ccccc1 (stereo not given) | inconclusive: 35.5 µM [inhibitor, single point] and inconclusive: 31.6 µM [inhibitor, single point] | 
37 | CCN(CCCNC(=O)c1cc(Nc2ccccc2OC)nc2ccccc12)c1cccc(C)c1 | inactive | 
38 | Cc1noc(C)c1CSCC(=O)Nc1nc(-c2ccc(F)c(F)c2)cs1 | active: 22.4 µM | 
39 | Cc1ccc(NC(=O)c2ccccc2NS(=O)(=O)c2ccc(Cl)s2)cc1 | inconclusive: 22.4 µM [inhibitor, single point] | 
40 | COC(=O)c1ccc(CN2CCC(CO)(Cc3ccccc3Cl)CC2)cc1 | inactive | 
41 | Cc1nn(-c2cccc(Cl)c2)c2nc(C(F)(F)F)[nH]c(=O)c12 | inconclusive: 39.8 µM [inhibitor, single point] | 
42 | CCN(Cc1ccc2c(c1)OCO2)C(=O)CSc1nc(C)nc2sc(C)c(C)c12 | inconclusive: 22.4 µM [inhibitor, partial curve, poor fit] | 
43 | CCCCCCCNC(=O)C1(CC2CC(c3ccccc3)=NO2)CCNCC1 (stereo not given) | inconclusive: 39.8 µM [inhibitor, single point] | 
44 | O=C(O)CSc1cc(NS(=O)(=O)c2ccc(Cl)cc2)c2ccccc2c1O |  | inconclusive: -51.2% [inhibitor]

Row | Structure (SMILES) | Potency | activity change, negative = inhibition
45 | O=C1C2=C(NC(=S)NC2c2ccc(Cl)cc2)NC(c2ccc(Cl)cc2)N1c1ccc(Cl)cc1 (stereo not given) | inconclusive: 39.8 µM [inhibitor, partial curve, poor fit] | 
46 | O=C(CN1CCCN(S(=O)(=O)c2ccc(Br)s2)CC1)Nc1ccc(Cl)cc1 | inconclusive: 15.8 µM [inhibitor, partial curve] | 
47 | COc1cccc(NC(=O)c2cccc(C(=O)Nc3cccc(OC)c3)n2)c1 | inactive | 
48 | CC(=O)Nc1sc2c(c1-c1nc3ccccc3s1)CN(C(C)C)CC2 | active: 3.55 µM | 
49 | O=C(OCn1ncc(Br)c(Br)c1=O)c1ccccc1Cl | active: 7.94 µM | 
50 | Nc1ccc2cc3ccc(N)cc3nc2c1 | active: 2.51 µM | 
51 | CCOc1ccc(C(=O)N(Cc2ccc(OC)cc2)Cc2cc3cc(OC)ccc3[nH]c2=O)cc1 | inconclusive: 25.1 µM [inhibitor, partial curve, poor fit] | 
52 | Cc1cccc(OCC(=O)Nc2ccc3c(c2)nc(CCN2CCN(c4ccccn4)CC2)n3C)c1 | active: 14.1 µM | 
53 | O=C(COc1ccccc1)Nc1cccc(-c2cn3cccnc3n2)c1 | inactive | 
54 | CCOc1ccc(N(C)C(CNS(=O)(=O)c2ccccc2)c2ccccc2)cc1 (stereo not given) | inconclusive: 39.8 µM [inhibitor, single point] | 
55 | Cc1ccc(C(NC(=O)C2CCN(CCOc3ccc(Cl)cc3Cl)CC2)c2ccccn2)cc1 (stereo not given) | active: 28.2 µM | 
56 | CC1(C)Cc2ccccc2C(NNC(=O)c2ccccn2)=N1 | inconclusive: 31.6 µM [inhibitor, single point] | 
57 | CCOC(=O)c1[nH]c2c(c1-c1ccccc1)C(=O)CC(c1ccc(OC)c(OC)c1)C2 (stereo not given) | inconclusive: 28.2 µM [inhibitor, partial curve, poor fit] | 
58 | COc1ccccc1-c1cc2nc(C)c(CCC(=O)NCc3cccc(Cl)c3)c(C)n2n1 | inactive | 
59 | CCOC(=O)C1(C(F)(F)F)N=C(c2cccnc2)OC(N2CCOCC2)=N1 (stereo not given) | inactive | 
60 | Cc1cc(/C=N/Nc2ncnc(N)c2[N+](=O)[O-])c(C)n1-c1ccccc1 | inconclusive: 2.51 µM [inhibitor, full curve, poor fit] | 
61 | CC(C)C[C@@H]1COc2cccc(N3CCN(Cc4ccccc4F)CC3)c2S(=O)(=O)N1 | inconclusive: 20 µM [inhibitor, partial curve, poor fit] | 
62 | Cc1[nH]nc(-c2ccc(O)c(C)c2O)c1-c1cnn(-c2ccccc2)c1 | inconclusive: 22.4 µM [inhibitor, single point] | 
63 | CCOc1ccc(Br)cc1C1C(C(=O)OC)=C(N)Oc2cc(N(C)C)ccc21 (stereo not given) | inactive | 
64 | COC(=O)COc1ccc(-c2nccc(-c3ccccn3)n2)cc1 | inconclusive: 0.708 µM [inhibitor, full curve] | 
65 | COc1ccc(-c2ccc(C(=O)Nc3ccc(OC)nc3)c3occc23)c(C)c1 | inconclusive: 39.8 µM [inhibitor, single point] | 
